Data: patent publication US20230227428A1 (Anaxis Pharma Pty Ltd, priority 2020, published 2023)

Experiments:
[1] = test system: U937 human histiocytic leukemia cell line; assay: Cellular assay: inhibition of TSQ induced necroptosis, 384 well plate format; conditions: U-937, U937 cells, TSQ cocktail (TNF, Smac mimetic, Q-VD-OPh), 48 hours, CellTitre-Glo, read-out: Inhibition of TSQ-induced necroptosis (IC50 cell-based assay)
Protocol: Cellular Assay: Screening Compounds for Inhibition of TSQ Induced Necroptosis, 384 Well Plate Format.
(§1) Cell Line ID: U937 human histiocytic leukemia cell line.
Cell Concentration (cells/well): Final cell density is 20000 cells per well.
Cell growth medium: HT-RPMI medium+7.4% Fetal Bovine Serum (FBS). Cells are cultured in Corning 150 cm^2 tissue culture flasks with vented caps at 37° C./5% CO2.
Incubation: Plates were incubated at 37° C./5% CO2 in a humidified incubator for 48 hours following addition of compounds and death stimuli (TSQ cocktail).
Compound concentration: 36 μM starting concentration, 1:3 dilution, 10 point
DMSO final concentration (% v/v): 0.3%.
Compounds in TSQ cocktail (T: TNF; S: Smac mimetic; Q: Q-VD-OPh) and their final concentrations:
hTNF-Fc (100 ng/ml)—produced by standard procedures as shown in Bossen et al., J Biol Chem, 2006, 281(20), 13964-13971.
Compound A (500 nM)—Smac mimetic, Tetralogic and SYNthesis med chem Q-VD-OPh (10 μM)—MP Biomedicals
(§2) The cellular assay was carried out according to the following steps: • 1. Each well was prepared by sequential addition of: • a. DMSO (control; columns 1-2 and 23-24) or compound in DMSO—addition was performed using acoustic transfer of nl volumes of stock compound to give final test concentrations of 36, 12, 4, 1.3, 0.44, 0.148, 0.049, 0.016, 0.005 and 0.002 μM. All wells were backfilled with DMSO to a final total volume in the well of 100 nl. • b. Following compound/DMSO addition in step (a), 40 μL of cell suspension (5×10^5 cells/mL) was added to provide a final cell concentration of 20,000 cells per well, and • c. Following cell addition in step (b), 10 μL of 5×TSQ cocktail (except to positive controls; […]) was added to each well. • 2. After 48 hours, plate was removed from the 37° C. incubator and equilibrated to room temperature for 45 minutes. • 3. 15 μL of room temperature CellTitre-Glo2™ (Promega™) was added to each well. • 4. Shook plates for 2 minutes (˜600 rpm) and incubated at room temperature for 15 minutes to allow signal to stabilise. • 5. Read luminescence readout on a plate reader.
Percent viability was calculated for each compound according to equation (2):
% viability=100×((RawData−NSA)/(TA−NSA) (2)
wherein RawData is the readout of any cell containing a compound of the invention TA is the total activity provided by the luminescence readout from DMSO only wells (columns 2 and 24)=100% viability NSA is the non-specific activity provided by DMSO+TSQ wells (columns 1 and 23)=0% viability
(§3) Curve fitting: 10-point titration curves are fitted with the 4-parameter logistic nonlinear regression model and the IC50 reported is the inflection point of the curve
Analysis: Data was loaded into Dotmatics™ and visualised using the Tibco® Spotfire™ software. points titration curve were fitted with the 4 parameter logistic nonlinear regression model and the IC50 reported reflect the inflection point of the curve for curve fitting.
Assay involving the TSQ cocktail (T: TNF; S: Smac mimetic; Q: Q-VD-OPh): TSQ treatment ensures that cells specifically undergo necroptotic cell death. TNF activates the TNF receptor, Smac mimetic directs the signal away from proinflammatory signaling and toward the RIP1/RIP3-mediated cell death pathways, and Q-VD-OPh ensures that the apoptotic response is blocked leaving only the programmed necrosis response. The compounds' activity (solution in DMSO) tested in this TSQ-induced assay was evaluated by determining the number of viable cells in culture by measuring the amount of ATP present as measured by CelltiterGlo.

U937 cells = assay: Counter screen: cell viability of U937 cells treated with compound without the TSQ cocktail (off-target effect); conditions: Homo sapiens, U-937, compound in DMSO without the TSQ cocktail, cell viability by CelltiterGlo, read-out: Off-target effect (IC50 cell-based assay)
Protocol: as §1, §2, §3
Counter screen: In parallel, all compounds were tested for their ability to affect cell viability. The same U937 cells were treated with compound in DMSO without the TSQ cocktail. This counter screen enabled evaluation of off-target effects. In this case, cell viability was measured by CelltiterGlo.

| Compound | IC50 [1] | IC50 (U937 cells) |
| --- | --- | --- |
| COc1cc(Nc2[nH]nc(-c3ccc(NC(=O)N4CCC[C@H]4c4ccccc4)cc3)c2C(N)=O)ccn1 [Compound 103, (S)-5-((2-methoxypyridin-4-yl)amino)-3-(4-(2-phenylpyrrolidine-1-carboxamido)phenyl)-1H-pyrazole-4-carboxamide] | > 1000 nM | > 1000 nM |
| NC(=O)c1c(-c2ccc(NC(=O)N3CCCC(c4ccc(F)cc4)C3)cc2)n[nH]c1Nc1cnccn1 (stereo not drawn) [Compound 94, N-(4-(4-carbamoyl-5-(pyrazin-2-ylamino)-1H-pyrazol-3-yl)phenyl)-3-(4-fluorophenyl)piperidine-1-carboxamide] | < 100 nM | > 1000 nM |
| COc1cc(Nc2[nH]nc(-c3ccc(NC(=O)N4CCC[C@@H](c5ccccc5)C4)cc3)c2C(N)=O)ccn1 [Compound 60, (S)-N-(4-(4-carbamoyl-5-((2-methoxypyridin-4-yl)amino)-1H-pyrazol-3-yl)phenyl)-3-phenylpiperidine-1-carboxamide] | 100 to 1000 nM | > 1000 nM |
| COc1cccc(C2CCCN(C(=O)Nc3ccc(-c4n[nH]c(Nc5cnccn5)c4C(N)=O)cc3)C2)c1 (stereo not drawn) [Compound 97, N-(4-(4-carbamoyl-5-(pyrazin-2-ylamino)-1H-pyrazol-3-yl)phenyl)-3-(3-methoxyphenyl)piperidine-1-carboxamide] | < 100 nM | > 1000 nM |
| COc1cc(Nc2[nH]nc(-c3ccc(NC(=O)N4CCCC(c5ccccc5)C4)cc3)c2C(N)=O)ccn1 (stereo not drawn) [Compound 59, N-(4-(4-carbamoyl-5-((2-methoxypyridin-4-yl)amino)-1H-pyrazol-3-yl)phenyl)-3-phenylpiperidine-1-carboxamide] | 100 to 1000 nM | > 1000 nM |
| NC(=O)c1c(-c2ccc(NC(=O)N3CCC[C@H](c4ccccc4)C3)cc2)n[nH]c1Nc1cnccn1 [Compound 90, (3R)-N-(4-{4-carbamoyl-5-[(pyrazin-2-yl)amino]-1H-pyrazol-3-yl}phenyl)-3-phenylpiperidine-1-carboxamide] | < 100 nM | > 1000 nM |
| NC(=O)c1c(-c2ccc(NC(=O)N3CCC[C@H](c4ccc(F)cc4)C3)cc2)n[nH]c1Nc1cccc(C(F)(F)F)n1 [Compound 78, (R)-N-(4-(4-carbamoyl-5-((6-(trifluoromethyl)pyridin-2-yl)amino)-1H-pyrazol-3-yl)phenyl)-3-(4-fluorophenyl)piperidine-1-carboxamide] | < 100 nM | > 1000 nM |
| NC(=O)c1c(-c2ccc(NC(=O)N3CCC[C@@H](c4ccccc4)C3)cc2)n[nH]c1Nc1cnccn1 [Compound 91, (3S)-N-(4-{4-carbamoyl-5-[(pyrazin-2-yl)amino]-1H-pyrazol-3-yl}phenyl)-3-phenylpiperidine-1-carboxamide] | > 1000 nM | > 1000 nM |
| NC(=O)c1c(-c2ccc(NC(=O)Nc3ccc(OC(F)(F)F)cc3)cc2)n[nH]c1Nc1cccnc1 [Compound 110, 5-(pyridin-3-ylamino)-3-(4-(3-(4-(trifluoromethoxy)phenyl)ureido)phenyl)-1H-pyrazole-4-carboxamide] | 100 to 1000 nM |  |
| COc1cc(Nc2[nH]nc(-c3ccc(NC(=O)NCCc4ccccc4)cc3)c2C(N)=O)ccn1 [Compound 66, 5-[(2-methoxypyridin-4-yl)amino]-3-(4-{[(2-phenylethyl)carbamoyl]amino}phenyl)-1H-pyrazole-4-carboxamide] | 100 to 1000 nM | > 1000 nM |
| NC(=O)c1c(-c2ccc(NC(=O)N3CCCC(c4cccc(C(F)(F)F)c4)C3)cc2)n[nH]c1Nc1cnccn1 (stereo not drawn) [Compound 98, N-(4-(4-carbamoyl-5-(pyrazin-2-ylamino)-1H-pyrazol-3-yl)phenyl)-3-(3-(trifluoromethyl)phenyl)piperidine-1-carboxamide] | < 100 nM | > 1000 nM |
| NC(=O)c1c(-c2ccc(NC(=O)Nc3ccc(OC(F)(F)F)cc3)cc2)n[nH]c1Nc1ccncc1 [Compound 109, 5-(pyridin-4-ylamino)-3-(4-(3-(4-(trifluoromethoxy)phenyl)ureido)phenyl)-1H-pyrazole-4-carboxamide] | 100 to 1000 nM | > 1000 nM |
| NC(=O)c1c(-c2ccc(NC(=O)Cc3ccc(C(F)(F)F)cc3)cc2)n[nH]c1Nc1ccccn1 [Compound 1, 3-(4-(2-(4-(trifluoromethyl)phenyl)acetamido)phenyl)-5-(pyridin-2-ylamino)-1H-pyrazole-4-carboxamide] | 100 to 1000 nM |  |
| COc1cc(Nc2[nH]nc(-c3ccc(NC(=O)N(C)CCc4ccccc4)cc3)c2C(N)=O)ccn1 [Compound 67, 5-((2-methoxypyridin-4-yl)amino)-3-(4-(3-methyl-3-phenethylureido)phenyl)-1H-pyrazole-4-carboxamide] | > 1000 nM | > 1000 nM |
| NC(=O)c1c(-c2ccc(NC(=O)N3CCCC(c4ccc(Cl)cc4)C3)cc2)n[nH]c1Nc1cnccn1 (stereo not drawn) [Compound 92, N-(4-(4-carbamoyl-5-(pyrazin-2-ylamino)-1H-pyrazol-3-yl)phenyl)-3-(4-chlorophenyl)piperidine-1-carboxamide] | 100 to 1000 nM | > 1000 nM |
| COc1cc(Nc2[nH]nc(-c3ccc(NC(=O)N4CCC[C@H](c5ccccc5)C4)cc3)c2C(N)=O)ccn1 [Compound 61, (R)-N-(4-(4-carbamoyl-5-((2-methoxypyridin-4-yl)amino)-1H-pyrazol-3-yl)phenyl)-3-phenylpiperidine-1-carboxamide] | < 100 nM | > 1000 nM |
| NC(=O)c1c(-c2ccc(NC(=O)CC3CCCCC3)cc2)n[nH]c1Nc1ccccn1 [Compound 8, 3-(4-(2-cyclohexyl-acetamido)phenyl)-5-(pyridin-2-ylamino)-1H-pyrazole-4-carboxamide] | > 1000 nM |  |
| NC(=O)c1c(-c2ccc(NC(=O)N3CCCC(c4ccccc4)C3)cc2)n[nH]c1Nc1cnccn1 (stereo not drawn) [Compound 89, N-(4-(4-carbamoyl-5-(pyrazin-2-ylamino)-1H-pyrazol-3-yl)phenyl)-3-phenylpiperidine-1-carboxamide] | 100 to 1000 nM | > 1000 nM |
